Sequences with one replicate were seen in a single cluster, so their values are uncertain.
What follows are sequences tested on ATP (assay: switch fluorescence ratio, 500 uM ATP over buffer (Cy3 cluster intensity, sum of 5 cycles each) (fold (ratio)); higher = stronger signal-on switching upon ATP binding). Conditions: aptamer strand: ATP DNA aptamer (quencher-CACCTGGGGGAGTATTGCGGAGGAAGG + anchor), 100 nM annealed; ATP concentration: 500 uM; one replicate.
How it was run: (§1)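 Clusters with intensities outside 100-1000 RFU were excluded. The remaining Cy3-labelled switching-strand clusters on a modified Illumina MiSeq flow-cell had been annealed to 100 nM quencher-labelled ATP aptamer and imaged in selection buffer, then after 15 min with 500 uM ATP at 22 °C, for five cycles separated by NaOH stripping and re-annealing. The fluorescence ratio, averaged per switch-domain sequence, is each cluster's summed target-cycle Cy3 intensity over its summed buffer-cycle Cy3 intensity.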
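Further: ATP exposure 15 min at 22 °C before imaging.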

Sequence | switch fluorescence ratio
TCGTCGGCAGCGTCAGATGTGTATAAGAGACAGTTTTTTTTTTTTTTTTTTTTTTTTTCCCTC | 0.984

The sequences below were run on ATP (assay: switch fluorescence ratio, 500 uM ATP over buffer (Cy3 cluster intensity, sum of 5 cycles each) (fold (ratio)); higher = stronger signal-on switching upon ATP binding; sequences stand for … in TCGTCGGCAGCGTCAGATGTGTATAAGAGACAGTTTTTTTTTTTTTTTTTTTTTTTTT…TC). Conditions: aptamer strand: ATP DNA aptamer (quencher-CACCTGGGGGAGTATTGCGGAGGAAGG + anchor), 100 nM annealed; ATP concentration: 500 uM; one replicate.
How it was run: as §1

Sequence | switch fluorescence ratio
TTTGAAGGTC | 1
TTTGAATCAT | 1.02
TTTGAATCGT | 0.962
TTTGACATAA | 0.994
TTTGACCATT | 0.968
TTTGACGAAA | 1.04
TTTGACTGAT | 1.02
TTTGAGCACG | 0.992
TTTGAGCCCT | 0.996
TTTGAGCGTA | 0.988
TTTGATGCCT | 1.03
TTTGATGGAT | 0.992
TTTGCAATGG | 1.62
TTTGCACATA | 1.07
TTTGCAGACG | 1.05
TTTGCAGAGG | 1
TTTGCATTTT | 0.953
TTTGCCGTTT | 0.992
TTTGCGGGTC | 0.956
TTTGCTA | 1.03
TTTGCTCGTT | 1.02
TTTGCTGACA | 0.991

Sequence | switch fluorescence ratio
TTTGCTGCTT | 0.996
TTTGGCCTGT | 1.06
TTTGGCTCGT | 0.974
TTTGGGAACA | 0.985
TTTGGGGATC | 0.979
TTTGGGTCCG | 0.979
TTTGGTCGTT | 0.966
TTTGGTGAGT | 0.995
TTTGGTGTCA | 0.959
TTTGGTTA | 0.976
TTTGGTTCAT | 1.04
TTTGGTTTG | 0.979
TTTGTACGGC | 1.01
TTTGTAGTCT | 0.999
TTTGTCATC | 1.04
TTTGTCCTAC | 1
TTTGTCTGCC | 1.04
TTTGTCTTGC | 1.14
TTTGTGCACT | 1.02
TTTGTGCC | 0.994
TTTGTGCTGT | 0.968
TTTGTGTCG | 1.01

Sequence | switch fluorescence ratio
TTTGTTAAAC | 1.04
TTTGTTCGG | 0.985
TTTGTTGACG | 0.965
TTTGTTGACT | 0.957
TTTTAAGTAT | 0.989
TTTTACAAGC | 1.02
TTTTACACTA | 1.04
TTTTACAGAG | 0.984
TTTTACCCCT | 1.04
TTTTACCGAA | 1.06
TTTTAGCGAG | 0.998
TTTTATCCTG | 0.972
TTTTATCGGA | 0.996
TTTTATGCAT | 1.01
TTTTATTA | 0.995
TTTTATTCGA | 0.999
TTTTCACGGC | 1.04
TTTTCATCTT | 1.01
TTTTCCAC | 1.01
TTTTCCAGAA | 1.02
TTTTCCTCGG | 1.16
TTTTCGCTAC | 3.89

Sequence | switch fluorescence ratio
TTTTCGGAGG | 0.976
TTTTCTCAGA | 1.07
TTTTGAAGGC | 1.04
TTTTGACA | 1.04
TTTTGATACC | 1.05
TTTTGATTCG | 1.03
TTTTGCATG | 0.976
TTTTGCGGT | 0.982
TTTTGGAGGC | 1.01
TTTTGGCAAT | 0.955
TTTTGGTCGT | 1.01
TTTTGTAAAT | 1.03
TTTTGTCACC | 0.988
TTTTTACCGC | 1.2
TTTTTCACC | 1.04
TTTTTGAAA | 1.07
TTTTTTCCAT | 0.985
TTTTTTGTC | 0.967
TTTTTTTTA | 1.01
